The text below walks through data of paper PMC7819943, “Rice protein-binding microarrays: a tool to detect cis-acting elements near promoter regions in rice”.

Some of the results follow.

The target of the assay is T1, OsWOX13 (Oryza sativa, UniProt Q5QMM3 1-267).
T1 sequence: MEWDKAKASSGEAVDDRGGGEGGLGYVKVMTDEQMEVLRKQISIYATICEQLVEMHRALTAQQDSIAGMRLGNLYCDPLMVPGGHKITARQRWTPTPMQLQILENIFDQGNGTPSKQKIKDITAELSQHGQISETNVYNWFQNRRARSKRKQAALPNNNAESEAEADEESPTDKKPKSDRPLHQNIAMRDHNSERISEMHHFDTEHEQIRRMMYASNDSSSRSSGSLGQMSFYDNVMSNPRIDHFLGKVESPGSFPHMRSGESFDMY
Put plainly: protein-binding microarray (RPBM); PBS, 2% BSA, 51.3 ng/ul salmon testes DNA, 50 uM zinc acetate, 200 nM TF, 25 C, 1 h; high values mean tight binding. As to conditions: protein: recombinant; tags: N-terminal polyhistidine and DsRed monomer fusion (pET32a); label: CyDye5-dUTP incorporated in the synthesized complementary strand; 3' TTTTT single-stranded linker to array surface; dsDNA, one strand shown. The method in brief: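 Polyhistidine-tagged DsRed fusions of transcription factors, joined at the N-terminus, were expressed in E. coli BL21-CodonPlus and isolated on Ni–NTA. They were incubated at 200 nM for 1 h at 25 °C on a custom Agilent array, double-stranded and BSA-blocked, in PBS with 2% BSA, salmon testes DNA and 50 µM zinc acetate. The binding signal is per-feature fluorescence intensity (arbitrary units) read on an Axon 4000B scanner after washing.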
For “CCGCTGAGTGATGGACTAGTGAGGAGACTGCAGCCTCTCACGGAGTCACCTAGTGCAG”, the binding signal was 8260 fluorescence intensity (a.u.). For the sequence “CTAAAGTCGATTGAATTAGGATCTGTGCAACTGGGCTTGGCGGAGTCACCTAGTGCAG”, the binding signal is 3460 fluorescence intensity (a.u.).

Consider “AAGAATTGTTTAATTGGGCCATAATATGATTACGGCATATCGGAGTCACCTAGTGCAG”, for which the binding signal is 18600 fluorescence intensity (a.u.). To “AAAATACTAATTACACAGATTGTGTGTAAATTGTGAGACGCGGAGTCACCTAGTGCAG” belongs 25200 fluorescence intensity (a.u.); to “TCTGAGATCAATCTATCAATCGTCAACCCTTTGCCTTTGTCGGAGTCACCTAGTGCAG”, 13500 fluorescence intensity (a.u.). In the case of “AGGATTGATGCAGCTGCAAGCACGCAGGATCATCCATTGGCGGAGTCACCTAGTGCAG”, the binding signal was 3650 fluorescence intensity (a.u.). For “AGTGTAATTATGTTATAATTTACATGTAGTTTTAAATTTACGGAGTCACCTAGTGCAG” the value was 16000 fluorescence intensity (a.u.). Regarding “ACTAATTATACAGATTGCGTGTAAATTGTGAGTTGAATCTCGGAGTCACCTAGTGCAG”, the binding signal was 28200 fluorescence intensity (a.u.).

On to “TGCAGCAAGATTGGCTACGCGATGTATTTGATAGGTGGATCGGAGTCACCTAGTGCAG”, for which the binding signal is 9490 fluorescence intensity (a.u.). For “ATGGATATCAATAATTGCACGGGTAACCTTCTTTAATCATCGGAGTCACCTAGTGCAG” the value was 7340 fluorescence intensity (a.u.). To “ACCTTCTTAAATTTTGATTTTGAAAATGAACCCCTCCAAACGGAGTCACCTAGTGCAG” belongs 4080 fluorescence intensity (a.u.); to “CGGTTAATTCGGTTAACCGAGCCCAATGACCGAAATACCCCGGAGTCACCTAGTGCAG”, 4360 fluorescence intensity (a.u.). Turning to “TATCTAATTGGCCCAACTAAATCTTGCTTTGCTAGCTTGTCGGAGTCACCTAGTGCAG”, the binding signal is 25400 fluorescence intensity (a.u.). For “GTTGTTTAATTACTTCTTTACCAAGTCAGTACATATTACTCGGAGTCACCTAGTGCAG” the value was 3420 fluorescence intensity (a.u.). To “TGCTAACAGCATGACTGGTGATTGTGATGCATGACTGGAGCGGAGTCACCTAGTGCAG” belongs 35600 fluorescence intensity (a.u.); to “GATTTTGACTGAGATATCAATAACTAATAGTTGCGCAAGCCGGAGTCACCTAGTGCAG”, 10600 fluorescence intensity (a.u.); to “AATTTAAAATTTCAACTTTAAATTTGAAGTTAACTTTAAGCGGAGTCACCTAGTGCAG”, 3610 fluorescence intensity (a.u.).

For the sequence “TGGTCCTAATTTATGTAGCCTTGATCTGTAGCATCATCTCCGGAGTCACCTAGTGCAG”, the binding signal is 6280 fluorescence intensity (a.u.). To “AAAGGAAAAGAAAATAATTGACGACGTTGAGTCGTTGACCCGGAGTCACCTAGTGCAG” belongs 7270 fluorescence intensity (a.u.); to “ATAATAATTATATCATCCAGGCTAGTACGAACTATAGTAGCGGAGTCACCTAGTGCAG”, 18300 fluorescence intensity (a.u.); to “TCGATTGATTGATTGATTCCTTGGAGAAGAAGAAGGAGGACGGAGTCACCTAGTGCAG”, 36400 fluorescence intensity (a.u.). “AGAGATAATTTGACCGGTCACCGCACGAAGAAAAGAGAAACGGAGTCACCTAGTGCAG”: the binding signal is 4610 fluorescence intensity (a.u.).

Take “ATATTGTGATTGGTTAAGAAATAAAGATACGTTGAATGATCGGAGTCACCTAGTGCAG”: the binding signal was 39200 fluorescence intensity (a.u.). For “CGCCAGCAGAATTAACAATCAAGGATTGCCTTTTCTTCCACGGAGTCACCTAGTGCAG” the value was 7160 fluorescence intensity (a.u.); for “ATCTATAATTTTCTAATAATTTAACTAAAATATATGTAGTCGGAGTCACCTAGTGCAG”, 22400 fluorescence intensity (a.u.); for “GCATTATTGTCCTAATTAATTACATGAATAAATGAAAAGACGGAGTCACCTAGTGCAG”, 20400 fluorescence intensity (a.u.).

Consider “AGCAAATTAATATGTGAATGATCACTTCTCTGAGGCCGGCCGGAGTCACCTAGTGCAG”, for which the binding signal was 16400 fluorescence intensity (a.u.). For “AACTGATAGGTTACCCCACAAGTCGCGCACCGCACGGCACCGGAGTCACCTAGTGCAG” the value was 5240 fluorescence intensity (a.u.).

As for “ATTAATCATTTATTAGCAAATGTTTACTGTAGCACAACATCGGAGTCACCTAGTGCAG”, the binding signal is 8360 fluorescence intensity (a.u.).

Turning to “ATTTTGATAGTATTGATATCTCATTTGGAATCTTTATTGGCGGAGTCACCTAGTGCAG”, the binding signal was 3820 fluorescence intensity (a.u.). For “CAATAACAGACATTCTAATATTTATTCTCTACTAGAGTATCGGAGTCACCTAGTGCAG” the value was 8380 fluorescence intensity (a.u.).

As to “AACATGTTCTGCTGATTGTTTGGTCATCCTATACTCATTACGGAGTCACCTAGTGCAG”, the binding signal was 8660 fluorescence intensity (a.u.). To “AACCAAATTTCTAATTTTAGCGCGAAGACCCACCTTATAGCGGAGTCACCTAGTGCAG” belongs 8570 fluorescence intensity (a.u.); to “TAATAATTTTCACCAAGTGTGAATGGCTTGTCGACACGTCCGGAGTCACCTAGTGCAG”, 5180 fluorescence intensity (a.u.); to “CGTGGCCATCAATTTGATCCCGTCACGTCTCCGCCCTCTTCGGAGTCACCTAGTGCAG”, 4050 fluorescence intensity (a.u.). As to “TCAGCCCTAATTAAGGAGTCTTAATTTTAGGTTGGCTACACGGAGTCACCTAGTGCAG”, the binding signal is 18700 fluorescence intensity (a.u.). To “TCTTGTTAAAATTTGATTAGAGGAGATGATCAATTCCTTCCGGAGTCACCTAGTGCAG” belongs 13900 fluorescence intensity (a.u.); to “TTCACAAATTTTGATGCGATGATTAGCTAAGGCATGTTCGCGGAGTCACCTAGTGCAG”, 23500 fluorescence intensity (a.u.); to “ATCTTCAACTTTAAATTTAAAACTGATTTTGAACTTTCTTCGGAGTCACCTAGTGCAG”, 7840 fluorescence intensity (a.u.). For “GGAGATGGAAATAGCCAATCACAGGAGAGTGAAGGACTAGCGGAGTCACCTAGTGCAG” the value was 22900 fluorescence intensity (a.u.). For “TAATTAATTCATTATTGGCAAATGTTTACCATAGCACCACCGGAGTCACCTAGTGCAG” the value was 11800 fluorescence intensity (a.u.); for “TTGATTAATTTTGAAGCATATCCCCAGTTATTAATTCCGCCGGAGTCACCTAGTGCAG”, 29100 fluorescence intensity (a.u.).
